Test results taken from publication PMC4336329 (PLoS ONE, 2015).
In all, about 310,000 compounds went through this assay and about 2,200 (0.71%) showed an effect of 50% or more. Effects have a minus sign here. Some of the results follow.

Each compound was assayed against human ether-à-go-go-related gene (hERG) potassium channel (human, UniProt Q12809) (assay: primary screen, population patch clamp on CHO cells stably expressing hERG).
Sequence of human ether-à-go-go-related gene (hERG) potassium channel (Q12809 whole entry, looked up): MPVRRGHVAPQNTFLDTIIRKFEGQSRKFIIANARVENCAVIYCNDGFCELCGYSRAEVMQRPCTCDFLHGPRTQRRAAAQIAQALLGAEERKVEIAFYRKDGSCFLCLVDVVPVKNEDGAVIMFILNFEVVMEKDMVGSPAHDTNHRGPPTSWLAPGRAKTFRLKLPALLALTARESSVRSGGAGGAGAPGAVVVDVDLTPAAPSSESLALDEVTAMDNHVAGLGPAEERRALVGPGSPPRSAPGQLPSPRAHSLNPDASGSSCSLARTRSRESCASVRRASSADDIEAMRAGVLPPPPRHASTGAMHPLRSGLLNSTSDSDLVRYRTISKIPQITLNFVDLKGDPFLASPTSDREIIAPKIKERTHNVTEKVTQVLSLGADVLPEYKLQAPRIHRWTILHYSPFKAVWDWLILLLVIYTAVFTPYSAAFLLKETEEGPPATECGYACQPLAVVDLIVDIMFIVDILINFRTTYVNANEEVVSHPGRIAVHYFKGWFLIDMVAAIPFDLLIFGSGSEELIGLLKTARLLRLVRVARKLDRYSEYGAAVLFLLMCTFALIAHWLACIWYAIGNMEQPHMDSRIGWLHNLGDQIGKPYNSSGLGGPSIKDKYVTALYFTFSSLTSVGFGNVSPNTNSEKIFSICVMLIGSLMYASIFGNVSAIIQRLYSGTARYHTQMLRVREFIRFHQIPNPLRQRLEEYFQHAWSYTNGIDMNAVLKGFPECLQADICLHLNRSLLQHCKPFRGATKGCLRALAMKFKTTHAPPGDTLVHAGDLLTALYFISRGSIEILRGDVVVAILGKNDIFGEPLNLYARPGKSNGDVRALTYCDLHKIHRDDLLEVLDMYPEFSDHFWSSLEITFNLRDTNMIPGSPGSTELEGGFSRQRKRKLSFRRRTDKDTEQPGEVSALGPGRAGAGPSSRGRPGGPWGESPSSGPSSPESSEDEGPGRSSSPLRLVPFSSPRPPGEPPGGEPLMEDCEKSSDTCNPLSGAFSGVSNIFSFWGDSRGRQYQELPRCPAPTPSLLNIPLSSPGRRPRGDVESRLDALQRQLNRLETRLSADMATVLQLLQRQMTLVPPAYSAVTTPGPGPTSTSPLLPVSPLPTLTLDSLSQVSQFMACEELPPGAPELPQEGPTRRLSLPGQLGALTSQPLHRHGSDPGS

Question: With `Cc1cc(C)c(C)c(OCC(=O)N2CCN(c3ccccn3)CC2)c1` as the compound, how does the “hERG current change (%, negative = inhibition) at 1uM” value read?
Answer: Its value is 2.13%.

Question: How did the “hERG current change (%, negative = inhibition) at 1uM” value turn out when `CN(C)c1ncc(S(=O)(=O)c2ccccc2)c(-c2ccccc2Cl)n1` was run?
Answer: Its value is 3.26%.

Question: `CCn1nc(C)cc1-c1n[nH]c(=S)n1N` was tested. Which “hERG current change (%, negative = inhibition) at 1uM” value did it give?
Answer: The value was 17.4%.

Question: Which “hERG current change (%, negative = inhibition) at 1uM” value does the source give for `COC(=O)c1sc2nc3c(c(-c4cccs4)c2c1N)CCCC3` here?
Answer: Its value is 6.19%.

Question: `COc1ccc(C(=O)CSc2nnc(Cn3nnc4ccccc43)n2C)cc1` was tested. Which “hERG current change (%, negative = inhibition) at 1uM” value did it give?
Answer: Its value is -2.19%.

Question: Which “hERG current change (%, negative = inhibition) at 1uM” value does the source give for `C/C=C\C=C/C(=O)Nc1cccc(C2=NOC3(C2)C[C@@H](C(N)=O)N(C(=O)/C=C/C=C\C)C3)c1` (some centres unmarked) here?
Answer: Its value is 20.7%.

Question: With `Cc1ccc(-n2c(CCC(=O)O)ccc2-c2cccs2)cc1C` as the compound, how does the “hERG current change (%, negative = inhibition) at 1uM” value read?
Answer: The value was 8.73%.

Question: Which “hERG current change (%, negative = inhibition) at 1uM” value does the source give for `CCOCCCNC(=O)C1CCN(S(=O)(=O)c2cc(Br)cc3c2N(C(=O)CC)CC3)CC1` here?
Answer: The value was 3.7%.

Question: How did the “hERG current change (%, negative = inhibition) at 1uM” value turn out when `O=C1CCC(C(=O)N2CCCCCC2)CN1Cc1cccc(C(F)(F)F)c1` (centres unmarked) was run?
Answer: The value was -8.4%.

Question: How did the “hERG current change (%, negative = inhibition) at 1uM” value turn out when `COc1ccc(NC(=O)Cn2c(=O)n(Cc3ccco3)c(=O)c3ccccc32)cc1` was run?
Answer: Its value is 15.7%.

Question: For `CCn1cc(CN2CCC(n3nccc3NC(=O)CCCc3ccccc3)CC2)cn1`, which “hERG current change (%, negative = inhibition) at 1uM” value is on record?
Answer: Its value is -6.13%.

Question: With `O=c1nc2s/c(=C\c3ccco3)c(=O)n2nc1Cc1ccccc1` as the compound, how does the “hERG current change (%, negative = inhibition) at 1uM” value read?
Answer: Its value is 15.3%.

Question: How did the “hERG current change (%, negative = inhibition) at 1uM” value turn out when `CCn1c(C)nc2cc(-c3nc4n(n3)Cc3ccccc3-4)ccc21` was run?
Answer: The value was 8.12%.

Question: Which “hERG current change (%, negative = inhibition) at 1uM” value does the source give for `COc1cc(NC(=O)Cc2ccc(F)cc2)cc(OC)c1OC` here?
Answer: Its value is 3.28%.

Question: With `CCS(=O)(=O)N1CCC(C(=O)Nc2cc([N+](=O)[O-])ccc2C)CC1` as the compound, how does the “hERG current change (%, negative = inhibition) at 1uM” value read?
Answer: The value was 10.8%.

Question: For `CC(C)c1ccc(NC(=O)[C@H]2CSCN2C(=O)[C@@H]2CCC(=O)N2)cc1`, which “hERG current change (%, negative = inhibition) at 1uM” value is on record?
Answer: Its value is 26.3%.

Question: How did the “hERG current change (%, negative = inhibition) at 1uM” value turn out when `CSCc1nnc2n1-c1ccc(Cl)cc1C(c1ccccc1)=NC2` was run?
Answer: The value was 4.89%.

Question: How did the “hERG current change (%, negative = inhibition) at 1uM” value turn out when `CC1CN(C(=O)c2cc3ccccc3cc2O)CC(C)O1` (centres unmarked) was run?
Answer: Its value is 10.3%.

Question: For `Cl.O=C(CCN1CCN(CCO)CC1)N1c2ccccc2Sc2ccc(C(F)(F)F)cc21`, which “hERG current change (%, negative = inhibition) at 1uM” value is on record?
Answer: Its value is 4.6%.

Question: How did the “hERG current change (%, negative = inhibition) at 1uM” value turn out when `COC(=O)C1=C(CS(=O)(=O)c2ccc(OC)cc2)NC(=O)NC1c1ccccc1` (centres unmarked) was run?
Answer: The value was 13.8%.

Question: With `COc1ccc(C2CC(c3ccc(OC)cc3)n3nc(NC(=O)c4ccco4)nc3N2)cc1` (centres unmarked) as the compound, how does the “hERG current change (%, negative = inhibition) at 1uM” value read?
Answer: The value was 7.19%.

Question: With `COc1ccc2nc(NC(=O)C3CCN(S(=O)(=O)c4cnc[nH]4)CC3)sc2c1` as the compound, how does the “hERG current change (%, negative = inhibition) at 1uM” value read?
Answer: The value was 17.6%.

Question: Which “hERG current change (%, negative = inhibition) at 1uM” value does the source give for `O=C(O)Cn1nc(C(F)(F)F)c2c1CCCC2` here?
Answer: Its value is 9.81%.

Question: `CC1CCCN(c2nc3ccsc3c(=O)s2)C1` (centres unmarked) was tested. Which “hERG current change (%, negative = inhibition) at 1uM” value did it give?
Answer: Its value is 0.344%.

Question: Which “hERG current change (%, negative = inhibition) at 1uM” value does the source give for `C/C(=N\NC(=O)c1ccc(O)cc1)c1ccc(NC(=O)Cc2ccccc2)cc1` here?
Answer: Its value is 14.4%.

Question: `COc1ccc(/C=C2/SC(=O)N(CC(O)Cn3c4ccccc4c4ccccc43)C2=O)cc1` (centres unmarked) was tested. Which “hERG current change (%, negative = inhibition) at 1uM” value did it give?
Answer: Its value is 5.89%.

Question: How did the “hERG current change (%, negative = inhibition) at 1uM” value turn out when `O=C(CN1CCN(S(=O)(=O)c2ccccc2[N+](=O)[O-])CC1)Nc1ccc(N2CCOCC2)cc1` was run?
Answer: Its value is -2.53%.

Question: Which “hERG current change (%, negative = inhibition) at 1uM” value does the source give for `CCN1C(=O)/C(=C2/C=CC=CN2C)SC1=S` here?
Answer: The value was -1.29%.

Question: For `COc1cccc(CN2CCCC(C(=O)c3ccc4c(c3)OCO4)C2)c1O` (centres unmarked), which “hERG current change (%, negative = inhibition) at 1uM” value is on record?
Answer: The value was -44.6%.

Question: `Cc1cc(OCc2cc(C(=O)NC3CCC3)no2)cc(C)c1Cl` was tested. Which “hERG current change (%, negative = inhibition) at 1uM” value did it give?
Answer: The value was 6.38%.

Question: For `COc1cc(C(=O)COC(=O)CNC(=O)C2CCCCC2)cc(OC)c1OC`, which “hERG current change (%, negative = inhibition) at 1uM” value is on record?
Answer: Its value is 4.44%.

Question: How did the “hERG current change (%, negative = inhibition) at 1uM” value turn out when `COc1ccc(-n2nc3c(c2NC(=O)CCCl)CSC3)cc1` was run?
Answer: The value was 16%.

Question: How did the “hERG current change (%, negative = inhibition) at 1uM” value turn out when `CCOC(=O)N1CCN(S(=O)(=O)CCNC(=O)c2ccc(F)cc2)CC1` was run?
Answer: Its value is -1.09%.

Question: `O=C(Nc1ccn(-c2ccccc2)n1)c1ccccc1Br` was tested. Which “hERG current change (%, negative = inhibition) at 1uM” value did it give?
Answer: The value was -0.915%.

Question: Which “hERG current change (%, negative = inhibition) at 1uM” value does the source give for `Cc1cc(NC(=O)c2ccc(Cl)c(S(=O)(=O)N3CCOCC3)c2)no1` here?
Answer: The value was 9.21%.

Question: `COc1ccc(CC(=O)N2CCN(S(=O)(=O)c3ccc(Cl)s3)CC2)cc1` was tested. Which “hERG current change (%, negative = inhibition) at 1uM” value did it give?
Answer: Its value is -6.95%.

Question: Which “hERG current change (%, negative = inhibition) at 1uM” value does the source give for `Cc1nn(-c2ccccc2)c(/N=C/c2ccccc2O)c1-c1ccccc1` here?
Answer: The value was 2.16%.

Question: For `CN(C(=O)CSc1nnc(-c2c[nH]c3ccccc23)n1C1CC1)C1CCS(=O)(=O)C1` (centres unmarked), which “hERG current change (%, negative = inhibition) at 1uM” value is on record?
Answer: The value was -3.54%.

Question: With `CC1CCC/C(=C\Nc2ccc3c(c2)OCO3)C1=O` (centres unmarked) as the compound, how does the “hERG current change (%, negative = inhibition) at 1uM” value read?
Answer: The value was -8.61%.

Question: For `O=C(NCCCn1ccnc1)c1cc(-c2ccc3c(c2)OCO3)on1`, which “hERG current change (%, negative = inhibition) at 1uM” value is on record?
Answer: Its value is -1.89%.

Question: With `CNC(=O)COC(=O)c1ccc2c(c1)NC(=O)C1CCCN21` (centres unmarked) as the compound, how does the “hERG current change (%, negative = inhibition) at 1uM” value read?
Answer: The value was 16.7%.

Question: For `CC(=O)c1ccc(S(=O)(=O)N2CCN(CC(=O)Nc3ccccc3C(=O)NC3CC3)CC2)cc1`, which “hERG current change (%, negative = inhibition) at 1uM” value is on record?
Answer: Its value is -43.4%.

Question: For `O=C(NC1=NCCS1)c1nc(-c2ccccc2)n(-c2ccccc2)n1`, which “hERG current change (%, negative = inhibition) at 1uM” value is on record?
Answer: The value was 11.5%.

Question: With `CCCN(CCC)CC(=O)N1CC(=O)Nc2ccccc21` as the compound, how does the “hERG current change (%, negative = inhibition) at 1uM” value read?
Answer: Its value is 6.68%.
